Measurements as given in the supplement of paper PMC12632987.
The full ranking holds about 1,800 sequences; the median of “median log2 fold change of GCK-ALFA target abundance (FLAG IP / Myc IP barcode read proportion)” is about 0.14, and the lowest 2% start at about -0.84. Some of the results follow.

T1: TRAF2, Q12933
T1 chain: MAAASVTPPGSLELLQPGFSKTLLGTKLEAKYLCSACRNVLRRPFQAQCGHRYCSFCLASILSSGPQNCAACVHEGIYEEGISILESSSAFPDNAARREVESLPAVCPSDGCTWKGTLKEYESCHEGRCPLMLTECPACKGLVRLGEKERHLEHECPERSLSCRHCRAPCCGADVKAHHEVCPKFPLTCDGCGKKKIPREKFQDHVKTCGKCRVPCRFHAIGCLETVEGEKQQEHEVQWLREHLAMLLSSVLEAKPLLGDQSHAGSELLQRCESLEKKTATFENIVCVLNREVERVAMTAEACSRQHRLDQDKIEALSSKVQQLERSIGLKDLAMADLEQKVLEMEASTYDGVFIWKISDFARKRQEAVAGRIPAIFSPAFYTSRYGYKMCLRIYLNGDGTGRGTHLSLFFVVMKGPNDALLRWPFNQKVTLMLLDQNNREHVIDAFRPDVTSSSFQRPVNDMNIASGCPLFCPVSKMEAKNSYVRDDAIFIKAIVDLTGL

B1: traf2_out_1_33_1031 (protein)
chain: SAEIERKSMALLRRTTGEMYRLLRETEEKMEKLLEEGKPAEEIEKLAEETRKKIKEIADKAIAELKALGDDLTADILESEKTDILKRLDEIKKEILAKLK
B2: traf2_out_20_3_2121 (protein)
chain: EELEKELKKELEKALKLLKEAAKKSDKETAKVLKELIKELKASEKLSPSDRLVVVSEIRRKVLELAEKARKAGDEELAKILEEAADELNKAAGLLLKIEE
B3: traf2_out_20_38_2023 (protein)
chain: SMEEEEEEKLKELVEVANKAYDEYSAKFAKWKAEGKTVEEIAEEVKKEIRELLSKAGLEEEAEILIEDVDLALKSPNAERLLIRTLARAVALVKQKELQK
B4: traf2_out_18_167_1843 (protein)
chain: EEEIEEKKRELSDKLVDLSAVRREALRALQALDTDPSRVPAELAALREEAAKVPELQPLVAAAEAALAAGDRAALRAELERLIEEAQKLMQEAYDKYEEL
B5: traf2_out_18_167_1820 (protein)
chain: SAETKARIEKLTDELVKVSEIRRLALAAIEAAETDPAAYPAALAATIEALNKVPEFKPKAKELKALPEAEKKAKLEEIAEEAQKRANELYKEREKLKKEA
B6: traf2_out_17_178_1730 (protein)
chain: TKEEILKEISEKADELLDVNRAAMAELRAIAEAEGVLTPELAARLDAVARTANLYALEEVADELIARSASADRIAALRAETTARMRELNKEIQELVEKLE
B7: traf2_out_20_38_2016 (protein)
chain: SMEEEEKKKLEELIKKAQEAYDEAEARIAALQAAGKSVEEIAAEAKKEITELLNAAGLEEEAKILVEDVDRVLDSPDALRLIARILARAKTLVFQKELQK
B8: traf2_out_11_169_847 (protein)
chain: EQEEKNRQIIDKALELEDKAKEELKKHALALAREAGLDVAEVEAIFEKHKGKSLSAIAAALIRWFREQGKEEAAAAVEAKYEELKEEINKKMTEFLKELE
B9: traf2_out_18_117_1794 (protein)
chain: EEREKIIKELKEIAEKLGKAASELGNLVLEKYEELSPEEKSAAMDVLADLSEVRRKALELIIRIEKENIPIEEAKKELKKLKEEAEKALKAAKEKIKELK
B10: traf2_out_9_108_2575 (protein)
chain: MSEEEILEEKFEKMLELVEEMLEEWDFPEELREALKASIEQAKRLYEEGEKRTAIVLLAIDAARAAYELGEEAVEELLERLEEIDPIAASAARRMVELLK
B11: traf2_out_12_50_978 (protein)
chain: SMEELEREENERFRAEADRILDARDALWAETGGDVEAFAARLLEIAKRSLEDAKLALAVARAKHSELLQKGEDTSVVAAAIDEIEAIKEELEEKRDAEEE
B12: traf2_out_11_169_870 (protein)
chain: EEAEKNRKLNDFALELNDKAKKELLEFSLELAKELGLDVEEVKAIFEKNKNSSLSAVAAALIKYFESKGEKDAAKKVLEKYEELKEKINKEFSKKLKELE
B13: traf2_out_11_169_783 (protein)
chain: KEKEKNRKFNDFALKKEDEAKKKLKEFALKLAKEAGLDVEEVKKIFEDNKGKSLSAIAAALVAYFKAKGKEDEAAAVLKKYEELKDEINKAVTAKMKELE
B14: traf2_out_13_95_1039 (protein)
chain: SAELAKKINELADKAMDEILALLDAAAAAHADDPEAVAVLDEARRLAETRGASEAIHLLRQAAAARPEHAADFDALAAQIEAIRREAGREAAKLIKEAEE
B15: traf2_out_20_3_2091 (protein)
chain: SELEERLREALERALELIEEAIKLADPETAARLEALRARLEAARELPLDEQLVALSEVRRELLELAEEARREGREELARLLEEAAEEVNRAMNLAYKILE
B16: traf2_out_9_17_2627 (protein)
chain: AEAEERLRQAILDTARAYLDELVAEGIISEESRKKLLARFEELLARGLSPDEFTAAVIGTLASTLLVDEKLSVKEAQKHAGELYLRLRAARAAVEAELAA
B17: traf2_out_8_144_2541 (protein)
chain: MMSRREIANRLANILVELDELQKEADPETKEVLTEARRHVGQALNLVVFGGPREEILKHLEAAKEKLEEAQKLVEDNPELKKKVQEILKEVEEIIKDVKA
B18: traf2_out_15_180_1323 (protein)
chain: MTEEELEKRIELANEVSDKVQDKLAALLAAHPQLSPEERAALRALARAVTTLLFNGEEAEAEAAVARAEARLSPEAAAVARELAAFAKKVVEEAKKKLEE
B19: traf2_out_13_95_1145 (protein)
chain: SAEVAEKIMAIADRMLEEKDKILDDLEAQLKEKGLLTPEVAAALEAAKKSSISTAIHTLQELSKKYPEAKALLDEAIAKLEEIKRRAGREVAKILKEEEE
B20: traf2_out_19_16_1985 (protein)
chain: AKEEAEKLIKEMEKYLEEALKLAKETVAKLNELSREELSDNLVEISELVRKAQEALQKALELLKDDPERRAKLQAEYDAKLDEINRLMTIIVNKLEELLK
B21: traf2_out_3_89_2287 (protein)
chain: SEEREKKIEELRRIIDRYLKGFEKSARRVAKEMLEEGYSLDTLEGVLNASKTALVEEIRRLAKERGLSEEDIKELVEEATKRLDEIVDKILEEAKKARAE
B22: traf2_out_17_162_1595 (protein)
chain: SALEEKLKEIEEELKRLREELKKLEEQLKNIDKLTPEELRDLLVEASEIRRRALELLEEIEKLKDEIDEETYERLSSEAEEIAERAQRIANQLYKRLEEL
B23: traf2_out_9_17_2610 (protein)
chain: SEKEEELKKKLLEAIEEVLKELVEEGYITEEEAEEILEKVKELIEKGASPEEIIATFLGDIASILLTKSNLSLPEANKIVGKAYRKLRERLEEIKKELEE
B24: traf2_out_11_169_792 (protein)
chain: EEAEKNRQINDFALELNDKAKKELEKKALALAKEAGLDVEAVKAIFEKHKNASLSAVAAALIAYFKSQGKEDEAAAVLKAYEELKDKINKEATAKIKELE
B25: traf2_out_17_162_1495 (protein)
chain: AAAEEKLKELKKRLEELEKKLEELKKKLPDLPKMSKEELTDLLVEVSELKREALELAEELKKLAKETGSPEAEKLAKRAEELAEEAQRIANEIYKELEKK
B26: traf2_out_13_95_1183 (protein)
chain: SEEAKKKINEIADKMIDEVEAVLDALRAATADDPALAAEIDAIRETARTRGIHEAIGRLRALRAAHPEHAAALDAAIAEMEAIREKAGKEVAKILKEEEE
B27: traf2_out_20_38_2046 (protein)
chain: AEEEAERAENEAIRAAVNKADEEADKLIAEAKAKGISPEELLEMVTEKAVKELNAHGLEDNAERIKERAAHYREEGKYEQGAVEILMSAAAAIAWKKAQE
B28: traf2_out_18_117_1786 (protein)
chain: MKREEIIAELEEIAERLERAASELGNLMLEKWEELSPEEKSEAMDVLADLTEVRREALLLIQKIRAGKIPVEEAIKETEELRKRAEEALKRAEEMIKKIK
B29: traf2_out_18_167_1890 (protein)
chain: SEEIKKKIDYYSDKLVELSEIRRALLEIYELLLEDEEKAKKAIEEALKKFPNSEVIKEVKELSETKTPEELRAFLEEKAEELQKEMNKAYKEREEALKKL

Target: T1, TRAF2, Q12933
Assay: median log2 fold change of GCK-ALFA target abundance (FLAG IP / Myc IP barcode read proportion) (log2 ratio); each designed protein is fused to an ALFA-tag nanobody in HEK293 cells to bring the named protein to FLAG-tagged glucokinase (GCK); Myc marks an untargeted standard; higher = target protein stabilised (more abundant)
Settings: target protein: 3xFLAG-MCP-GCK-ALFA reporter; HEK293 landing pad (RPLP)
How it was run: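 The readout is target abundance, the per-binder median log2 ratio of FLAG to Myc barcode read proportions. It came from HEK293 landing-pad cells carrying a recombined ALFA-nanobody-fused binder library, induced with 2 μg mL^−1 doxycycline and transfected with a plasmid for a FLAG-tagged target and a Myc-tagged standard. After 48 h, lysates were immunoprecipitated with anti-FLAG and anti-Myc, and circular RNA barcodes were reverse transcribed, amplified and sequenced. Each barcode needed a proportion of at least 10^−7 in both replicates and each binder at least 3 barcodes per replicate, a pseudocount of 10^−6 was added, and the replicates were pooled.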
For B1, the “median log2 fold change” value was 0.233.
In the case of B2, the “median log2 fold change” value is reported as 0.277.
With B3 the “median log2 fold change” value was -1.38.
For B4, the “median log2 fold change” value was 0.099.
B5 was tested, and the “median log2 fold change” value was 0.309.
For B6, the “median log2 fold change” value was 0.203.
With B7 the “median log2 fold change” value was 0.349.
B8 was tested, and the “median log2 fold change” value was -0.218.
With B9 the “median log2 fold change” value was -0.2.
In the case of B10, the “median log2 fold change” value is reported as -0.386.
For B11, the “median log2 fold change” value was 0.292.
With B12 the “median log2 fold change” value was 0.133.
For B13, the “median log2 fold change” value was 0.11.
In the case of B14, the “median log2 fold change” value is reported as -0.113.
With B15 the “median log2 fold change” value was -0.0622.
With B16 the “median log2 fold change” value was -0.033.
With B17 the “median log2 fold change” value was 0.126.
In the case of B18, the “median log2 fold change” value is reported as 0.381.
With B19 the “median log2 fold change” value was -0.43.
B20 was tested, and the “median log2 fold change” value was 0.389.
For B21, the “median log2 fold change” value was -0.239.
For B22, the “median log2 fold change” value was -0.127.
With B23 the “median log2 fold change” value was -0.479.
For B24, the “median log2 fold change” value was 0.154.
With B25 the “median log2 fold change” value was 0.433.
With B26 the “median log2 fold change” value was 0.208.
In the case of B27, the “median log2 fold change” value is reported as 0.111.
B28 was tested, and the “median log2 fold change” value was -0.76.
For B29, the “median log2 fold change” value was 0.406.
